Measured values as given in publication PMC5892938.
This is one part of the list. The source does not settle which construct or isoform was used.

The sequences below were run against GST-SBP-ILF3 (Homo sapiens) (UniProt Q12906) (assay: targeted RNA Bind-n-Seq). Details: RBNS binding buffer: 25 mM Tris pH 7.5, 150 mM KCl, 3 mM MgCl2, 0.1% Tween, 0.5 mg/mL BSA, 1 mM DTT; 27 nM protein, 750 pM RNA pool; temperature not stated; high values mean tight binding; sequences stand for … in GGGUAAAAGCGAGGUGAA…CGGGACAAGUAUUAUGGG.

Sequence	binding signal (log2 fold change)
UUUUUUUUUUGAGAGCGAGUCGUUCUCCUA [tttttgagapaired]	0.133
GGUGUGUGUGUUGGUCUCUAACACAUAUAC [gtspaired]	-0.664
UUUUUUUUUUGAGACUGAGUCAGUUUCCAG [tttttgagapaired]	0.358
UUUUUUUUUUGAGAUGGUAACUAUCUCCUA [tttttgagapaired]	0.247
UUUUUUUUUUGAGACGGGCUCCGUCUCCUG [tttttgagapaired]	0.48
GUGUGUGGUGUUGGCCCCUAACACCAUACG [gtspaired]	-0.224
GUGUGGUGUGUUGGCAUCUAACACACUACA [gtspaired]	-0.523
GGUGGUGGUGUUGGUAUCUAACACCGCUAC [gtspaired]	-1.1
UUUUUUUUUUGAGAGCGGGGCGCUCUCCUA [tttttgagapaired]	0.373
GGUGGUUGUGUUGGUGUCUAACACAGCCGC [gtspaired]	-0.588
GGUGGUUGUGUUGGCCCCUAACACAGCUAC [gtspaired]	-0.161
GGUGGUGGUGUUGGCACCUAACACCGCCGC [gtspaired]	-0.371
UUUUUUUUUUGAGAUGGAAACCAUUUCCAG [tttttgagapaired]	0.188
UUUUUUUUUUGAGAGUGUGACAUUCUCCAG [tttttgagapaired]	0.245
UUUUUUUUUUGAGAUGGGUCCUAUCUCCAG [tttttgagapaired]	0.784
GUGGUUGGUGUUGGCACCUAACACCGACCA [gtspaired]	-0.266
GGUGUGUGUGUUGGCGUCUAACACACGCGC [gtspaired]	-0.412
GUGUGUGGUGUUGGACCCUAACACCACGCA [gtspaired]	-0.262
UUUUUUUUUUGAGAGGGACACCCUCUCCUA [tttttgagapaired]	0.522
GUGGUGUGUGUUGGAUCCUAACACACGCCG [gtspaired]	-0.719
GUGUGUGGUGUUGGCGUCUAACACCAUACG [gtspaired]	-0.53
UUUUUUUUUUGAGACUGGAGCAGUCUCCUA [tttttgagapaired]	0.506
UUUUUUUUUUGAGAUCGGGUCGAUCUCCGG [tttttgagapaired]	0.229
UUUUUUUUUUGAGACGGCUACCGUCUUCUG [tttttgagapaired]	0.864
GUUGUGUGUGUUGGACUCUAACACACACAG [gtspaired]	-0.392
UUUUUUUUUUGAGAGGGAACCCCUUUCCAG [tttttgagapaired]	-0.0258

Sequence	binding signal (log2 fold change)
UUUUUUUUUUGAGACGGGGACCGUCUCCAG [tttttgagapaired]	0.486
GGUGGUGGUGUUGGAGCCUAACACCGCUAC [gtspaired]	-0.544
UUUUUUUUUUGAGAUGGGAUCCAUCUUCUA [tttttgagapaired]	-0.109
GUGUGUGGUGUUGGAGCCUAACACCAUACA [gtspaired]	0.0506
GUGUGGUGUGUUGGCCUCUAACACACCAUA [gtspaired]	-0.803
GUGUGUUGUGUUGGUGCCUAACACAACGCG [gtspaired]	-0.724
GUGUGUGGUGUUGGUCCCUAACACCACGCG [gtspaired]	-0.538
GGUGGUGGUGUUGGACUCUAACACCGCUAC [gtspaired]	-0.417
UUUUUUUUUUGAGACCGGAUCGGUCUCCAG [tttttgagapaired]	0.387
UUUUUUUUUUGAGAUGGAGACCAUCUUCUG [tttttgagapaired]	0.243
UUUUUUUUUUGAGACGGAGACCGUUUCCGG [tttttgagapaired]	0.781
UUUUUUUUUUGAGAUGGACUCCGUCUCCAG [tttttgagapaired]	0.257
UUUUUUUUUUGAGACGGGAUCUGUCUCCGG [tttttgagapaired]	0.536
GGUGUGUGUGUUGGUCCCUAACACAUAUAC [gtspaired]	-0.691
GUGUGGUGUGUUGGCCCCUAACACAUCACA [gtspaired]	-0.144
GUUGGUGGUGUUGGCGCCUAACACCACCAG [gtspaired]	-0.252
UUUUUUUUUUGAGAGCGAGCCGCUCUUCUA [tttttgagapaired]	-0.0383
GUGGUGUGUGUUGGUCUCUAACACACGCCG [gtspaired]	-0.73
UUUUUUUUUUGAGACGGGGGCCGUUUCCUA [tttttgagapaired]	0.723
UUUUUUUUUUGAGACUGUGUCAGUCUCCUG [tttttgagapaired]	0.891
UUUUUUUUUUGAGAACGUAUCGUUCUCCUA [tttttgagapaired]	-0.114
UUUUUUUUUUGAGAGCGUACCGCUCUUCUA [tttttgagapaired]	0.433
UUUUUUUUUUGAGAAGGGGUCCUUCUCCAG [tttttgagapaired]	0.33
UUUUUUUUUUGAGACGGGGACCGUCUUCUA [tttttgagapaired]	0.3
GUGUGUUGUGUUGGUGUCUAACACAACGCA [gtspaired]	-0.66
UUUUUUUUUUGAGACAGGGAUAAUAAAAAA [ttttgagaunpaired]	-0.755

Sequence	binding signal (log2 fold change)
UUCUCUUCUCCUCCAGCGGAGGGGGAGGGA [ctspaired]	-0.299
UUUUUUUUUUGAGAGGGUAACCCUCUCCUA [tttttgagapaired]	-0.00563
UUUUUUUUUUGAGACUGUAUCAGUCUCCAG [tttttgagapaired]	0.269
UUUUUUUUUUGAGACUGAUACAGUCUCCUG [tttttgagapaired]	0.527
UUUUUUUUUUGAGACUGAACCAGUCUCCAG [tttttgagapaired]	0.294
UUUUUUUUUUGAGACGGCUUCCGUCUCCUA [tttttgagapaired]	0.492
UUUUUUUUUUGAGAUGGAAGCCAUCUCCUG [tttttgagapaired]	0.0463
GGUGUGUGUGUUGGAAUCUAACACAUAUAC [gtspaired]	-0.338
GUGGUGUGUGUUGGAACCUAACACACGCUA [gtspaired]	-0.348
UUUUUUUUUUGAGAAGGUAUCCUUCUCCAG [tttttgagapaired]	-0.211
UUUUUUUUUUGAGAGGGGGGCCCUCUCCUA [tttttgagapaired]	0.605
UUUUUUUUUUGAGAUGGUAACCAUCUUCUG [tttttgagapaired]	0.291
UUUUUUUUUUGAGACGGGAACCGUCUCCGG [tttttgagapaired]	0.447
UUCUCUCUUCCUCCAGGGGAGGAGGGGAGA [ctspaired]	-0.315
GUUGGUGGUGUUGGAGUCUAACACCGCCAG [gtspaired]	-0.218
GUGUGUGGUGUUGGCUUCUAACACCGCGCG [gtspaired]	-0.695
UUUUUUUUUUGAGACCGAGGCGGUCUUCUA [tttttgagapaired]	0.502
GGUGUGUGUGUUGGCACCUAACACAUACGC [gtspaired]	-0.57
UUUUUUUUUUGAGACUGGGACAGUUUUCUA [tttttgagapaired]	0.422
UUUUUUUUUUGAGACGGGAUCUGUCUCCUG [tttttgagapaired]	0.769
UUUUUUUUUUGAGAUGGAUCCUAUCUCCAG [tttttgagapaired]	0.0205
GUUGGUGGUGUUGGCUUCUAACACCGCCGA [gtspaired]	-0.523
UUUUUUUUUUGAGAGGGCGACCCUUUCCGG [tttttgagapaired]	0.401
UUUUUUUUUUGAGAUGGGUGCCAUCUUCUG [tttttgagapaired]	0.453
UUUUUUUUUUGAGAUCGAGCCGAUCUCCAG [tttttgagapaired]	0.279
UUUUUUUUUUGAGAUGGGGCCCAUCUCCAG [tttttgagapaired]	0.57

Sequence	binding signal (log2 fold change)
GUGUGUGGUGUUGGCGCCUAACACCGCGCG [gtspaired]	-0.532
UUUUUUUUUUGAGAUCGAACCGAUCUCCUA [tttttgagapaired]	-0.0589
UUUUUUUUUUGAGACGGUAACCGUUUCCUG [tttttgagapaired]	0.463
UUUUUUUUUUGAGACCGGGUCGGUCUUCUG [tttttgagapaired]	0.685
GUGGUGUGUGUUGGAUUCUAACACACGCCG [gtspaired]	-0.685
UUUUUUUUUUGAGAGGGGGACCCUCUCCUA [tttttgagapaired]	0.24
GUGUGUGGUGUUGGUGCCUAACACCAUACG [gtspaired]	-0.436
UUUUUUUUUUGAGAUGGAUGCCGUCUCCUG [tttttgagapaired]	0.627
GUGGUUGGUGUUGGUCCCUAACACCAAUCA [gtspaired]	-0.218
UUUUUUUUUUGAGAGGGGUGCCCUCUCCGG [tttttgagapaired]	0.539
UUUUUUUUUUGAGAUGGGAUCUAUCUCCUA [tttttgagapaired]	-0.00741
GGUUGGUGUGUUGGAUUCUAACACAUCGAC [gtspaired]	-0.843
UUUUUUUUUUGAGACGGAAUCCGUCUCCUG [tttttgagapaired]	0.203
UUUUUUUUUUGAGAGUGAAACACUCUCCGG [tttttgagapaired]	0.00839
GGUUGGUGUGUUGGCCCCUAACACAUCAAC [gtspaired]	-0.15
UUUUUUUUUUGAGACUGAAGCAGUUUUCUA [tttttgagapaired]	-0.0501
UUUUUUUUUUGAGAGGGUGGCCCUCUCCGG [tttttgagapaired]	0.858
GGUGGUGGUGUUGGAACCUAACACCAUCGC [gtspaired]	-0.307
UUUUUUUUUUGAGAACGGAUCGUUCUCCAG [tttttgagapaired]	0.194
UUUUUUUUUUGAGACGGAUCCCGUCUCCUG [tttttgagapaired]	0.841
UUUUUUUUUUGAGAUCGAGACGGUCUUCUA [tttttgagapaired]	0.189
GGUUGGUGUGUUGGUACCUAACACAUCGAC [gtspaired]	-0.791
UUUUUUUUUUGAGACGGCUUCCGUCUCCUG [tttttgagapaired]	0.605
UUUUUUUUUUGAGAGGGGGACCCUCUCCUG [tttttgagapaired]	0.435
UUUUUUUUUUGAGACUGCUGCAGUUUCCUA [tttttgagapaired]	0.605
